The other results are listed elsewhere or left out. Rule as the data show it: only hits are listed; in these data all have Qbind below 0.67. Repeats are few or missing, and single values can be far off.
Assays:
Assay in all cases: Qbind: 19F CPMG 200 ms/0 ms integral ratio with target relative to without target; higher = weaker binding (less relaxation enhancement by target)
PtkA (30 kDA) = test system: PtkA (30 kDA)
[1] = test system: Adenine-sensing riboswitch
[2] = test system: TPP-sensing riboswitch tenA
[3] = test system: Guanidine-II-sensing riboswitch
[4] = test system: TPP-sensing riboswitch thiM (80)
Terminator stem (39 nt) = test system: Terminator stem (39 nt)
[5] = test system: Tel26 G-quadruplex (26 nt)
ZMP-sensing riboswitch = test system: ZMP-sensing riboswitch
[6] = test system: cKit G-quadruplex (24 nt)
[7] = test system: cMyc G-quadruplex (22 nt)
[8] = test system: wtTel26 G-quadruplex (26 nt)
T7 RNAP (100kDA) = test system: T7 RNAP (100kDA)
[9] = test system: Translation initiation region (60 nt)
[10] = test system: c-di-GMP-sensing riboswitch (98 nt)
[11] = test system: Ribosomal protein S1 (61 kDa)
cGAMP-sensing riboswitch = test system: cGAMP-sensing riboswitch
HDV ribozyme (70 nt) = test system: HDV ribozyme (70 nt)
[12] = test system: Hammerhead ribozyme (54 nt)
DNA duplex (24 nt) = settings: 19F shift (ppm): -114.9211
tRNA (77nt) = test system: tRNA (77nt)

Measured: Qbind: 19F CPMG 200 ms/0 ms integral ratio

FC(F)(F)c1ccc(CN2CCOCC2)cc1
active: PtkA (30 kDA); 19F shift (ppm): -62.0447 = -0.00711

N#Cc1ccc(CNCc2ccc(F)cc2)cc1
active: [1]; 19F shift (ppm): -112.179 = 0.486 | [2]; 19F shift (ppm): -112.1461 = 0.524

Fc1cccc(CNCc2ccco2)c1
active: [3]; 19F shift (ppm): -112.417 = 0.643 | [2]; 19F shift (ppm): -112.417 = 0.654 | [4]; 19F shift (ppm): -112.417 = 0.664 | Terminator stem (39 nt); 19F shift (ppm): -112.4742 = 0.612

CC1COCCN1Cc1ccccc1F (configuration not stated)
active: [1]; 19F shift (ppm): -112.926 = 0.597 | [4]; 19F shift (ppm): -112.865 = 0.529 | [4]; 19F shift (ppm): -115.3702 = 0.555 | [5]; 19F shift (ppm): -112.8651 = 0.0904 | ZMP-sensing riboswitch; 19F shift (ppm): -112.865 = 0.609 | [6]; 19F shift (ppm): -112.8651 = -0.241 | [7]; 19F shift (ppm): -112.8651 = -0.0534 | [8]; 19F shift (ppm): -112.8651 = 0.141

CNCc1ccc(C(F)(F)F)cc1
active: PtkA (30 kDA); 19F shift (ppm): -62.3827 = 0.302

O=C(Nc1cccc(F)c1)c1cnccn1
active: [1]; 19F shift (ppm): -112.0628 = 0.012 | PtkA (30 kDA); 19F shift (ppm): -111.981 = 0.197 | T7 RNAP (100kDA); 19F shift (ppm): -112.049 = 0.13 | [2]; 19F shift (ppm): -112.0565 = -0.157 | [4]; 19F shift (ppm): -112.0565 = 0.422 | [5]; 19F shift (ppm): -112.0029 = -0.0348 | [9]; 19F shift (ppm): -112.0628 = 0.217 | ZMP-sensing riboswitch; 19F shift (ppm): -112.014 = 0.0179 | [10]; 19F shift (ppm): -112.014 = 0.409 | [6]; 19F shift (ppm): -112.0029 = -0.13 | [7]; 19F shift (ppm): -112.0029 = -0.151 | [8]; 19F shift (ppm): -112.0029 = 0.382

Fc1cccnc1NCC1CCOCC1
active: [3]; 19F shift (ppm): -139.243 = 0.589 | Terminator stem (39 nt); 19F shift (ppm): -139.178 = 0.207

Fc1ccc(NC2CCOCC2)nc1
active: [3]; 19F shift (ppm): -142.569 = 0.505 | [5]; 19F shift (ppm): -142.6611 = 0.494 | ZMP-sensing riboswitch; 19F shift (ppm): -142.591 = 0.574

COc1ccc(NCc2ccc(F)cc2)cc1
active: [1]; 19F shift (ppm): -116.07 = 0.643 | PtkA (30 kDA); 19F shift (ppm): -116.1917 = -0.019 | [11]; 19F shift (ppm): -116.2222 = 0.328 | T7 RNAP (100kDA); 19F shift (ppm): -116.2222 = 0.048 | [2]; 19F shift (ppm): -116.018 = 0.325 | [5]; 19F shift (ppm): -116.1947 = 0.628 | [6]; 19F shift (ppm): -116.1947 = 0.614 | [7]; 19F shift (ppm): -116.1947 = 0.323 | [8]; 19F shift (ppm): -116.1947 = 0.638

Cn1nnc(NC(=O)c2ccc(F)cc2)n1
active: [1]; 19F shift (ppm): -106.1934 = 0.346 | [2]; 19F shift (ppm): -106.1469 = 0.194 | [4]; 19F shift (ppm): -106.1469 = 0.599 | [5]; 19F shift (ppm): -106.2728 = 0.5 | ZMP-sensing riboswitch; 19F shift (ppm): -106.1469 = 0.25 | [10]; 19F shift (ppm): -106.1469 = 0.572 | cGAMP-sensing riboswitch; 19F shift (ppm): -106.1469 = 0.604 | [6]; 19F shift (ppm): -106.2728 = 0.47 | [7]; 19F shift (ppm): -106.2728 = 0.226

COc1cccc(C(=O)Nc2ccccc2F)c1
active: [1]; 19F shift (ppm): -123.0231 = 0.24 | HDV ribozyme (70 nt); 19F shift (ppm): -123.0231 = 0.522 | [12]; 19F shift (ppm): -123.0231 = 0.558 | PtkA (30 kDA); 19F shift (ppm): -122.85 = -0.204 | [11]; 19F shift (ppm): -122.9511 = -0.116 | T7 RNAP (100kDA); 19F shift (ppm): -122.9511 = 0.115 | [2]; 19F shift (ppm): -123.0184 = -0.031 | [4]; 19F shift (ppm): -123.0184 = -0.0132 | [5]; 19F shift (ppm): -123.0818 = 0.06 | [9]; 19F shift (ppm): -123.0231 = 0.178 | ZMP-sensing riboswitch; 19F shift (ppm): -122.9511 = 0.251 | cGAMP-sensing riboswitch; 19F shift (ppm): -122.9511 = 0.448 | [6]; 19F shift (ppm): -123.0818 = 0.25 | [7]; 19F shift (ppm): -123.0818 = -0.0274 | [8]; 19F shift (ppm): -123.0818 = -0.102

C[C@@H]1CC[C@H](C(=O)N2CCC=C(F)C2)O1
active: DNA duplex (24 nt) 0.524 | [12]; 19F shift (ppm): -114.957 = 0.488 | [2]; 19F shift (ppm): -114.896 = 0.57 | [5]; 19F shift (ppm): -114.9211 = 0.566

Cc1ccc(C(N)=O)c(F)c1
active: [1]; 19F shift (ppm): -114.672 = 0.422 | T7 RNAP (100kDA); 19F shift (ppm): -114.8413 = 0.199 | [2]; 19F shift (ppm): -114.645 = 0.206 | ZMP-sensing riboswitch; 19F shift (ppm): -114.624 = 0.0729

Nc1cc(C(F)(F)F)ccc1N1CCCCC1
active: PtkA (30 kDA); 19F shift (ppm): -61.6633 = -0.0269 | [11]; 19F shift (ppm): -61.7189 = -0.0593 | T7 RNAP (100kDA); 19F shift (ppm): -61.7189 = 0.00224 | tRNA (77nt); 19F shift (ppm): -61.7801 = 0.547

O=C(Nc1nncs1)c1ccccc1F
active: [1]; 19F shift (ppm): -113.9483 = 0.1 | HDV ribozyme (70 nt); 19F shift (ppm): -113.9483 = 0.65 | [2]; 19F shift (ppm): -113.8229 = 0.032 | [4]; 19F shift (ppm): -113.8229 = 0.0101 | [5]; 19F shift (ppm): -114.1176 = 0.224 | ZMP-sensing riboswitch; 19F shift (ppm): -113.8549 = 0.0311 | [10]; 19F shift (ppm): -113.8549 = 0.2 | cGAMP-sensing riboswitch; 19F shift (ppm): -113.8549 = 0.194 | [6]; 19F shift (ppm): -114.1176 = -0.0288 | [7]; 19F shift (ppm): -114.1176 = 0.217 | tRNA (77nt); 19F shift (ppm): -113.9483 = 0.523 | [8]; 19F shift (ppm): -114.1176 = 0.371

NC(=S)Nc1ccc(OC(F)(F)F)cc1
active: PtkA (30 kDA); 19F shift (ppm): -57.7518 = 0.183

O=C(CN1CCCC1)Nc1ccc(F)cc1
active: [1]; 19F shift (ppm): -116.4464 = 0.456 | T7 RNAP (100kDA); 19F shift (ppm): -116.4599 = 0.285 | [2]; 19F shift (ppm): -116.4225 = 0.5 | ZMP-sensing riboswitch; 19F shift (ppm): -116.4225 = 0.634 | [6]; 19F shift (ppm): -116.486 = 0.188 | [7]; 19F shift (ppm): -116.486 = 0.395

Reference: the supplement of paper PMC7436455
